The list shows a part of the results. At the low end of the ranking the order means little.
Molecular target: GST-SBP-SLBP (stem-loop binding protein) (UniProt Q14493)
Assay: targeted RNA Bind-n-Seq;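 note: DESeq read counts versus GST-SBP nonspecific binding control pulldown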
Conditions: RBNS binding buffer: 25 mM Tris pH 7.5, 150 mM KCl, 3 mM MgCl2, 0.1% Tween, 0.5 mg/mL BSA, 1 mM DTT; 27 nM protein, 750 pM RNA pool; temperature not stated; high values mean tight binding

Row | Sequence | binding signal (log2 fold change)
1 | GGUCACGUCUCAAUCAACUCAUUCCCCAGGGAAAACCCUGGCUAUUUCAACAGCUCGCAGUCAAG | 0.0465
2 | GGUCACGUCUCAAUCAACUCAAUCCCAGGAGUUUACUCCUGCAAUGUCAACAGCUCGCAGUCAAG | 0.104
3 | GGUCACGUCUCAAUCAACUCAUUUUCAGGAGUUUACUCCUGCAUAGUCAACAGCUCGCAGUCAAG | 0.235
4 | GGUCACGUCUCAAUCAACUCUUCCUCAGGAGUUUUCUCCUGUUUAUUCAACAGCUCGCAGUCAAG | 0.0107
5 | GGUCACGUCUCAAUCAACUCUUACGAGGGGGGGAAAACCCCUUUGCCCUCAAUAUCAACAGCUCGCAGUCAAG | -0.0349
6 | GGUCACGUCUCAAUCAACUCAAUUCCCAGGGAAAGCCCUGGUAUACUCAACAGCUCGCAGUCAAG | -0.0615
7 | GGUCACGUCUCAAUCAACUCAUCGUCAGGAGUUUUCUCCUGCUUUUUCAACAGCUCGCAGUCAAG | 0.274
8 | GGUCACGUCUCAAUCAACUCUAUUCCCAGGGAAAGCCCUGGCUUUUUCAACAGCUCGCAGUCAAG | -0.0248
9 | GGUCACGUCUCAAUCAACUCUUUCCCCAGGGAAAGCCCUGGUAAUUUCAACAGCUCGCAGUCAAG | 0.0874
10 | GGUCACGUCUCAAUCAACUCAAGUCCAGGAGUUUUCUCCUGUAUAUUCAACAGCUCGCAGUCAAG | -0.115
11 | GGUCACGUCUCAAUCAACUCAAAAGAGGGGGGGAAAACCCCUUUACCCUCACUUUCAACAGCUCGCAGUCAAG | -0.163
12 | GGUCACGUCUCAAUCAACUCUUUCUCCAGGGAAAUCCCUGGCAAUCUCAACAGCUCGCAGUCAAG | -0.122
13 | GGUCACGUCUCAAUCAACUCAUACGAGGGGGGGAAAACCCCUUUGCCCUCAUCAUCAACAGCUCGCAGUCAAG | 0.0664
14 | GGUCACGUCUCAAUCAACUCAAGUCCAGGAGUUUUCUCCUGCAAAUUCAACAGCUCGCAGUCAAG | 0.214
15 | GGUCACGUCUCAAUCAACUCAUUCGCAGGAGUUUACUCCUGGUUUCUCAACAGCUCGCAGUCAAG | 0.00351
16 | GGUCACGUCUCAAUCAACUCCUUAGAGGGGGGGAAAACCCCUUUACCCUCAAAUUCAACAGCUCGCAGUCAAG | -0.557
17 | GGUCACGUCUCAAUCAACUCUACAGAGGGGGGGAAAACCCCUUUGCCCUCCACAUCAACAGCUCGCAGUCAAG | 0.28
18 | GGUCACGUCUCAAUCAACUCAGUUCCAGGAGUUUACUCCUGUUUAUUCAACAGCUCGCAGUCAAG | -0.134
19 | GGUCACGUCUCAAUCAACUCUUACGAGGGGGGGAAAACCCCUUUACCCUCUUUAUCAACAGCUCGCAGUCAAG | -0.166
20 | GGUCACGUCUCAAUCAACUCAAUUUCCAGGGAAAGCCCUGGCUAAUUCAACAGCUCGCAGUCAAG | 0.0289
21 | GGUCACGUCUCAAUCAACUCUACUUCCAGGGAAACCCCUGGUUAUUUCAACAGCUCGCAGUCAAG | 0.0826
22 | GGUCACGUCUCAAUCAACUCUUCUUCCAGGGAAAUCCCUGGCUAUUUCAACAGCUCGCAGUCAAG | 0.0517
23 | GGUCACGUCUCAAUCAACUCAGUUUCAGGAGUUUCCUCCUGUUUUCUCAACAGCUCGCAGUCAAG | -0.093
24 | GGUCACGUCUCAAUCAACUCUUCGUCCAGGGAAAGCCCUGGUAUUUUCAACAGCUCGCAGUCAAG | 0.0106

Row | Sequence | binding signal (log2 fold change)
25 | GGUCACGUCUCAAUCAACUCUAUGUCAGGAGUUUCCUCCUGCUUUCUCAACAGCUCGCAGUCAAG | 0.00888
26 | GGUCACGUCUCAAUCAACUCUAACGAGGGGGGGAAAACCCCUUUACCCUCACAUUCAACAGCUCGCAGUCAAG | -0.0442
27 | GGUCACGUCUCAAUCAACUCUCCCGAGGGGGGGAAAACCCCUUUACCCUCUACAUCAACAGCUCGCAGUCAAG | -0.0493
28 | GGUCACGUCUCAAUCAACUCUAUGUCAGGAGUUUUCUCCUGCUUUUUCAACAGCUCGCAGUCAAG | -0.0413
29 | GGUCACGUCUCAAUCAACUCAUUUCCAGGAGUUUUCUCCUGUUUUCUCAACAGCUCGCAGUCAAG | -0.0578
30 | GGUCACGUCUCAAUCAACUCUUUUCCAGGAGUUUACUCCUGUUUUUUCAACAGCUCGCAGUCAAG | -0.172
31 | GGUCACGUCUCAAUCAACUCAACUUCCAGGGAAAACCCUGGCAAUUUCAACAGCUCGCAGUCAAG | -0.034
32 | GGUCACGUCUCAAUCAACUCAUCCUCAGGAGUUUACUCCUGCAAAGUCAACAGCUCGCAGUCAAG | 0.0962
33 | GGUCACGUCUCAAUCAACUCAUCGGAGGGGGGGAAAACCCCUUUACCCUCACUCUCAACAGCUCGCAGUCAAG | -0.18
34 | GGUCACGUCUCAAUCAACUCACUAGAGGGGGGGAAAACCCCUUUGCCCUCGAUAUCAACAGCUCGCAGUCAAG | -0.305
35 | GGUCACGUCUCAAUCAACUCAUUCGAGGGGGGGAAAACCCCUUUACCCUCAAAAUCAACAGCUCGCAGUCAAG | 0.129
36 | GGUCACGUCUCAAUCAACUCAUUCCCCAGGGAAACCCCUGGUAUAUUCAACAGCUCGCAGUCAAG | 0.0773
37 | GGUCACGUCUCAAUCAACUCAAUCUCCAGGGAAACCCCUGGCUAACUCAACAGCUCGCAGUCAAG | 0.101
38 | GGUCACGUCUCAAUCAACUCAUUUUCAGGAGUUUCCUCCUGCUAACUCAACAGCUCGCAGUCAAG | 0.0221
39 | GGUCACGUCUCAAUCAACUCAAAAGAGGGGGGGAAAACCCCUUUGCCCUCAUUCUCAACAGCUCGCAGUCAAG | -0.136
40 | GGUCACGUCUCAAUCAACUCAAUAGAGGGGGGGAAAACCCCUUUGCCCUCACUAUCAACAGCUCGCAGUCAAG | -0.765
41 | GGUCACGUCUCAAUCAACUCUACUUCAGGAGUUUACUCCUGUUAACUCAACAGCUCGCAGUCAAG | -0.151
42 | GGUCACGUCUCAAUCAACUCAUCUCCCAGGGAAACCCCUGGCUUAUUCAACAGCUCGCAGUCAAG | -0.283
43 | GGUCACGUCUCAAUCAACUCAAUCCCAGGAGUUUACUCCUGUAUUCUCAACAGCUCGCAGUCAAG | 0.00653
44 | GGUCACGUCUCAAUCAACUCUACUCCAGGAGUUUCCUCCUGUUAUCUCAACAGCUCGCAGUCAAG | 0.0932
45 | GGUCACGUCUCAAUCAACUCUUUUUCAGGAGUUUACUCCUGUUUACUCAACAGCUCGCAGUCAAG | 0.162
46 | GGUCACGUCUCAAUCAACUCUUCCUCCAGGGAAACCCCUGGCAUUUUCAACAGCUCGCAGUCAAG | -0.000228
47 | GGUCACGUCUCAAUCAACUCUUUUUCCAGGGAAACCCCUGGCAAAUUCAACAGCUCGCAGUCAAG | -0.0371
